Assay results from PubChem BioAssay AID485281 (National Center for Advancing Translational Sciences (NCATS), 2010).
The campaign covered roughly 350,000 compounds. About 260 (0.074%) were called active. Inconclusive means that the source gave no clear call. Such entries were picked first, then a sample of the others. The call rests on the fitted dose curve; in most records, active means well fitted inhibition curve with a large enough effect; inconclusive means small, poorly fitted or top-dose-only effect; inactive means no such curve, though single readings can be large or run the other way. Potencies beside an inconclusive call are fits to weak or partial responses and may not hold up.

Target: Ferritin light chain (Equus caballus) (UniProt P02791)
Test: qHTS Assay for Identification of Novel General Anesthetics; further: nearly all actives have a fitted effect of over 20% in size
Details: apoferritin/1-aminoanthracene competitive binding, fluorescence; series mostly up to 77.5 µM
Procedure, shortened: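 Concentration-response curves derived by four-parameter Hill fitting of normalized fluorescence, where compounds displaced 1-AMA from 10 uM horse apoferritin following a brief 10 min room-temperature incubation; propofol titration acted as positive control.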
Potency means the concentration at half of the fitted maximal effect; tags describe the fitted curve by direction and shape.

Sequence of UniProt P02791 (P02791 whole entry, looked up): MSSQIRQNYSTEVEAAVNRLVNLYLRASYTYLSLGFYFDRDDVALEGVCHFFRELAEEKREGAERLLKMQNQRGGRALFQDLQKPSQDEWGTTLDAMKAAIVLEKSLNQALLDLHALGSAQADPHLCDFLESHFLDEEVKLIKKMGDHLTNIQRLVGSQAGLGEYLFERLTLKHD

| Compound | Potency |
| --- | --- |
| O=C1NC(=S)N(C(=O)c2ccc(F)cc2)/C1=C/c1ccccc1 | inconclusive: 35.5 µM [inhibitor, partial curve] |
| CCN(CC)c1cccc(OC2=NS(=O)(=O)c3ccccc32)c1 | inconclusive: 20 µM [inhibitor, partial curve] |
| CC1CC(=O)N(c2ccc(NCc3ccc(Cl)cc3)c([N+](=O)[O-])c2)C1=O (centres undefined) | inconclusive: 35.5 µM [inhibitor, single point] |
| COc1ccc(C2CC(c3ccccc3)=NN2C(=O)COC(=O)c2nc3nc(C)cc(C)n3n2)cc1 (centres undefined) | inconclusive: 17.8 µM [inhibitor, partial curve] |
| COc1ccc(C)cc1NCC(=O)Nc1ccc(C(C)(C)C)cc1 | inconclusive: 14.1 µM [inhibitor, partial curve] |
| COc1ccc(Cl)cc1NC(=O)CN(C)C1CCCCC1 | inconclusive: 39.8 µM [inhibitor, partial curve] |
| COc1ccccc1N1CCN(C(=O)c2cc3cc(Br)ccc3oc2=O)CC1 | inconclusive: 22.4 µM [inhibitor, partial curve] |
| CCOC(=O)CSc1snnc1-c1ccccc1 | inconclusive: 28.2 µM [inhibitor, partial curve] |
| COc1ccc(NC(=O)Nc2nc(C)cc(C)n2)c(OC)c1 | inactive |
| CCOC(=O)N1CCC(Nc2nc3ccccc3nc2NS(=O)(=O)c2ccc(Cl)cc2)CC1 | inactive |
| CCCCn1nnnc1SCC(=O)c1cc(Cl)ccc1OC | inconclusive: 35.5 µM [inhibitor, partial curve] |
| CCOc1ccc(Nc2c(S(=O)(=O)c3ccccc3)cnc3ccc(CC)cc23)cc1 | inconclusive: 1.58 µM [inhibitor, partial curve] |
| Cc1ccc(C(=O)c2cn(CC(=O)Nc3ccc4c(c3)OCCO4)c3nc(C)ccc3c2=O)cc1 | inconclusive: 39.8 µM [inhibitor, single point] |
| CCCCCCCNc1nc(Cl)nc(NCCO)n1 | inconclusive: 15.8 µM [inhibitor, partial curve] |
| Nc1nc(N2CCCCC2)nc2ccccc12 | inactive |
| CC(=O)c1ccc(Nc2ccc(-c3ccccc3F)nn2)cc1 | inconclusive: 31.6 µM [inhibitor, partial curve] |
| CC(C)C1CC(CCN)(c2ccccc2)CCO1 (centres undefined) | inactive |
| N#Cc1ccccc1NC(=O)CN1CCN(c2ccccn2)CC1 | inactive |
| CCC(C)(C)c1ccc(OC(=O)c2cccnc2Cl)cc1 | inconclusive: 50.1 µM [inhibitor, single point] |
| O=C(C[n+]1cccc(NC(=O)c2ccccc2)c1)c1ccc(NC(=O)c2ccccc2)cc1 | inconclusive: 25.1 µM [inhibitor, partial curve] |
| CC(NC(=O)C1CCN(C(=O)N2CCOc3ccccc32)CC1)c1ccccc1 (centres undefined) | active: 15.8 µM |
| N#Cc1ccc(C(c2nnnn2C2CCCC2)N2CCC(Cc3ccccc3)CC2)cc1 (centres undefined) | inactive |
| CC(C)Oc1ccc(C(=O)NC2CCS(=O)(=O)C2)cc1 (centres undefined) | inactive |

| Compound | Potency |
| --- | --- |
| CCC1COCCS(=O)(=O)N1Cc1cccc(Cl)c1 (centres undefined) | inconclusive: 35.5 µM [inhibitor, partial curve] |
| N#CCSc1nnc(Cc2cccc3ccccc23)n1C1CCCCC1 | inconclusive: 50.1 µM [inhibitor, single point] |
| O=C(COC(=O)c1cc2ccccc2cc1O)NC(=O)NCc1ccco1 | inconclusive: 15.8 µM [inhibitor, partial curve] |
| Oc1ccccc1N=Cc1c(O)ccc2ccccc12 | inconclusive: 31.6 µM [inhibitor, single point] |
| Cc1nc2c(cc(Oc3ccc(S(=O)(=O)N4CCOCC4)cn3)c3ccsc32)s1 | inconclusive: 0.891 µM [inhibitor, full curve, poor fit] |
| CN(C)c1ccc(N=Nc2ccccc2C(=O)OCC(=O)Nc2ccccc2C(F)(F)F)cc1 | inconclusive: 39.8 µM [inhibitor, partial curve] |
| CC(C)CNC(=O)c1ccccc1NC(=O)Nc1ccccc1 | inactive |
| c1cc2c3c(cccc3c1)NC1(CCCCCC1)N2 | inactive |
| O=C(COC(=O)c1ccc(NS(=O)(=O)c2cccs2)cc1O)Nc1nc2ccccc2s1 | inconclusive: 10 µM [inhibitor, partial curve] |
| COc1ccc(NC(=O)Nc2nnc(-c3ccco3)s2)cc1 | inactive |
| CC(=O)c1cccc(NCC(=O)c2ccc(C)c([N+](=O)[O-])c2)c1 | inactive |
| COc1ccc(NC(=O)c2ccco2)cc1NC(=O)c1ccc(OC(C)C)cc1 | inactive |
| O=C(COC(=O)c1ccc([N+](=O)[O-])o1)NC1CCS(=O)(=O)C1 (centres undefined) | inactive |
| CCC(C)NS(=O)(=O)c1ccc(S(=O)(=O)N(CC(=O)Nc2ccccc2)CC2CCCO2)cc1 (centres undefined) | inconclusive: 11.2 µM [inhibitor, partial curve] |
| CCCN1CCC(=NNc2ccc(S(=O)(=O)N(CC)CC)cc2[N+](=O)[O-])CC1 | inconclusive: 15.8 µM [inhibitor, partial curve] |
| Cc1cc(C)cc(C(=O)N2CCN=C2SCc2ccc([N+](=O)[O-])cc2)c1 | inconclusive: 7.08 µM [inhibitor, partial curve] |
| COc1ccc(S(=O)(=O)N(CCCN2CCCC2=O)Cc2cc3c(C)cc(C)cc3[nH]c2=O)cc1 | inconclusive: 12.6 µM [inhibitor, partial curve] |
| O=C(c1cccc(Cl)c1)N1CCN(Cc2ccncc2)CC1 | inactive |
| COc1cc(C(=O)Nc2nnc(CC(C)(C)C)s2)cc(OC)c1OC | inconclusive: 35.5 µM [inhibitor, partial curve, poor fit] |
| CCc1ccc(NC(=O)C2CCCN2S(=O)(=O)c2cccc3nsnc23)cc1 (centres undefined) | inconclusive: 20 µM [inhibitor, partial curve] |
| CCc1ccccc1NC(=S)/N=C(\N)Nc1nc(C)c2cc(C)ccc2n1 | inactive |
| CC(=O)c1cn(CCOc2ccccc2C)c2ccccc12 | inactive |
| CCC1=[N+](C)CCn2c(C)ccc21 | inactive |

| Compound | Potency |
| --- | --- |
| CCc1ccc2occ(CC(=O)NCc3ccccc3)c2c1 | inactive |
| COc1ccc(C(=O)Nc2ncc3c(n2)CC(c2ccco2)CC3=O)cc1 (centres undefined) | inconclusive: 28.2 µM [inhibitor, single point] |
| COc1ccc(-c2ccc(-c3cc(=O)oc4cc(OC)c(OC)c(OC)c34)cc2)cc1F | inconclusive: 8.91 µM [inhibitor, partial curve] |
| CC(C)c1ccc(NC(=O)c2cc(S(=O)(=O)NCCC3=CCCCC3)ccc2F)cc1 | inconclusive: 3.98 µM [inhibitor, full curve] |
| CC1CC(=O)c2c(cc3c(-c4c(O)cc(O)c5c(O)c6c(cc45)OC(C)CC6=O)c(O)cc(O)c3c2O)O1 (centres undefined) | inconclusive: 15.8 µM [inhibitor, partial curve] |
| O=C(O)C1CCCCC1C(=O)NCc1ccccn1 (centres undefined) | inconclusive: 25.1 µM [inhibitor, partial curve] |
| Cn1c(=O)c2c(-c3ccccc3)n(-c3ccccc3O)cc2n(C)c1=O | inactive |
| O=C(OCC#CCSc1nnc(-c2ccc([N+](=O)[O-])cc2)o1)c1cccs1 | inconclusive: 39.8 µM [inhibitor, partial curve] |
| CCOC(=O)c1ccc(NC(=O)C(CC)Sc2nncn3c2cc2oc(C)cc23)cc1 (centres undefined) | inconclusive: 12.6 µM [inhibitor, partial curve] |
| c1ccc(-c2csc(-n3cccn3)n2)cc1 | inconclusive: 25.1 µM [inhibitor, single point] |
| CC1CCCCC1NC(=O)CO/N=C/c1ccc(OC(F)F)cc1 (centres undefined) | inconclusive: 12.6 µM [inhibitor, partial curve] |
| COCCCN1CC(=O)N2C(c3cccc(OC)c3)c3[nH]c4ccccc4c3C[C@H]2C1=O (some centres undefined) | inconclusive: 39.8 µM [inhibitor, partial curve] |
| CCC1=C(c2ccc(C)cc2)S(=O)(=O)N=C1N1CCC(C(=O)NCCc2cccc(OC)c2)CC1 | inconclusive: 39.8 µM [inhibitor, single point] |
| Fc1ccc(CNc2ccc(N3CCN(Cc4ccccc4)CC3)cc2)cc1 | inconclusive: 20 µM [inhibitor, partial curve] |
| Cc1ccc(CC(=O)NCc2nc(-c3cccc(C)c3)no2)cc1 | inconclusive: 35.5 µM [inhibitor, partial curve] |
| O=C(CCc1nnc(Cc2c[nH]c3ccccc23)o1)NCC1CC12CCCCC2 (centres undefined) | inconclusive: 39.8 µM [inhibitor, single point] |
| CCOC(=O)c1ccc(N2C(=O)C3CC=C(C)CC3C2=O)cc1 (centres undefined) | inconclusive: 14.1 µM [inhibitor, partial curve] |
| Cc1cccc(C)c1OCc1cc(=O)n2ccsc2n1 | inactive |
| COc1cc(OC)c(NC(=O)C(C)n2nc(-c3ccc(C)c(C)c3)ccc2=O)cc1Cl (centres undefined) | inconclusive: 50.1 µM [inhibitor, single point] |
| COc1cccc(NC(=O)CSc2nnc(NC(=O)NC3CCCCC3)s2)c1 | inconclusive: 8.91 µM [inhibitor, partial curve] |
| CCC(C)(C)NC(=O)c1ccc2c(c1)OCCO2 | inconclusive: 44.7 µM [inhibitor, single point] |
| CN(Cc1ccccc1)C(=O)c1ccc2c(c1)N(Cc1ccc(Cl)cc1)C(=O)c1ccccc1S2=O (centres undefined) | inactive |
| COc1ccccc1-c1cc2nc(C)c(CCC(=O)NC(C)CCc3ccco3)c(C)n2n1 (centres undefined) | inconclusive: 39.8 µM [inhibitor, single point] |
